Laboratory results published in PMC6299220 (mBio, 2018).

System: M. tuberculosis strain H37Rv

| SMILES | reduction of viable CFU (10× and 20× MIC, over 7 days, ~10^7 cells/ml) | bactericidal activity, time-kill outcome |
| --- | --- | --- |
| CCCCS(=O)(=O)Nc1ccc2cnn(C)c2c1 [DG167, N-(1-Methyl-1H-indazol-6-yl)butane-1-sulfonamide] | 2 log10 | – |
| NNC(=O)c1ccncc1 [INH, isoniazid] | – | rapid reduction of viable CFU levels followed by rapid regrowth |
